Assay results from patent US8735349B2, “Method for improving glucose tolerance in a diabetes type 2 patient of younger than 50 years and having postprandial plasma glucose concentration of at least 14 mmol/L” (priority 2011, dated 2014).

Columns and labels:
[1] = system: obese type 2 diabetic patients younger than 50 and not adequately controlled with metformin; assay: Example 2: change in body weight and patients with ≧5% weight loss; settings: for Body weight, observed data, Mean / Body weight, observed data, Median / Body weight, change from baseline, Mean / Body weight, change from baseline, Median: mITT population
[2] = system: obese type 2 diabetic patients younger than 50 and not adequately controlled with metformin; assay: Example 2: HbA1c change from baseline and HbA1c responders; settings: for HbA1c, observed data, Mean / HbA1c, observed data, Median / HbA1c, change from baseline, Mean / HbA1c, change from baseline, Median: mITT population
[3] = system: obese type 2 diabetic patients younger than 50 and not adequately controlled with metformin; assay: Example 2: patient disposition / premature treatment discontinuation; format: in vivo, human
[4] = system: obese type 2 diabetic patients younger than 50 and not adequately controlled with metformin; set-up: species or system human; settings: in vivo
[5] = system: obese type 2 diabetic patients younger than 50 and not adequately controlled with metformin; set-up: species or system human; settings: in vivo; remark: listed apart in the source
[6] = system: obese type 2 diabetic patients younger than 50 and not adequately controlled with metformin; settings: human, in vivo

For `N[C@@H](CC(=O)N1CCn2c(nnc2C(F)(F)F)C1)Cc1cc(F)c(F)cc1F` [sitagliptin], the “Body weight, observed data, Mean” value ([1]; Baseline) was 100.56 kg, the “Body weight, observed data, Median” value ([1]; Baseline) was 97.30 kg and the “Body weight, observed data, Mean” value ([1]; Screening) was 100.73 kg. The “Body weight, observed data, Median” value ([1]; Screening) was 97.20 kg, the “Body weight, change from baseline, Mean” value ([1]; Week 4) was -0.53 kg and the “Body weight, change from baseline, Median” value (shortened to “Body weight, change … Median”) ([1]; Week 4) was -0.30 kg. The “Body weight, observed data, Mean” value ([1]; Week 4) was 99.80 kg, the “Body weight, observed data, Median” value ([1]; Week 4) was 97.30 kg and the “Body weight, change from baseline, Mean” value ([1]; Week 8) was -0.75 kg. The “Body weight, change … Median” value ([1]; Week 8) was -0.70 kg, the “Body weight, observed data, Mean” value ([1]; Week 8) was 99.17 kg and the “Body weight, observed data, Median” value ([1]; Week 8) was 97.20 kg. The “Body weight, change from baseline, Mean” value ([1]; Week 12) was -0.92 kg, the “Body weight, change … Median” value ([1]; Week 12) was -0.55 kg and the “Body weight, observed data, Mean” value ([1]; Week 12) was 98.32 kg. For the same molecule, the “Body weight, observed data, Median” value ([1]; Week 12) was 96.55 kg, the “Body weight, change from baseline, Mean” value ([1]; Week 16) was -0.99 kg and the “Body weight, change … Median” value ([1]; Week 16) was -0.80 kg. For the same molecule, the “Body weight, observed data, Mean” value ([1]; Week 16) was 98.16 kg, the “Body weight, observed data, Median” value ([1]; Week 16) was 96.15 kg and the “Body weight, change from baseline, Mean” value ([1]; Week 24 (LOCF)) was -0.89 kg. For the same molecule, the “Body weight, change … Median” value ([1]; Week 24 (LOCF)) was -0.50 kg, the “Body weight, observed data, Mean” value ([1]; Week 24 (LOCF)) was 99.43 kg and the “Body weight, observed data, Median” value ([1]; Week 24 (LOCF)) was 97.35 kg. For the same molecule, the “Body weight, change from baseline, Mean” value ([1]; Week 24) was -0.97 kg, the “Body weight, change … Median” value ([1]; Week 24) was -0.50 kg and the “Body weight, observed data, Mean” value ([1]; Week 24) was 97.91 kg. For the same molecule, the “Body weight, observed data, Median” value ([1]; Week 24) was 97.00 kg, the “patients with ≧5% weight loss from baseline to Week 24” value ([1]; add-on to metformin, mITT) was 11.9% and the “Body weight Change from baseline to week 24 (LOCF) Mean (SD)” value ([1]; mITT) was −0.89 (3.37) kg. The “Body weight Change from baseline to week 24 (LOCF) Median” value ([1]; mITT) was -0.50 kg, the “Patients with <5% weight loss from baseline to Week 24” value ([1]; mITT) was 141 (88.1%) n (%) and the “patients with ≧5% weight loss from baseline to Week 24” value ([1]; mITT) was 19 (11.9%) n (%). For the same molecule, the “Body weight Change from baseline to week 24 (LOCF) LS Mean (SE)” value ([1]; mITT, ANCOVA) was −1.17 (0.304) kg, the “Body weight Week 24 (LOCF) Mean (SD)” value ([1]; mITT, Week 24 (LOCF)) was 99.43 (24.00) kg and the “Body weight Week 24 (LOCF) Median” value ([1]; mITT, Week 24 (LOCF)) was 97.35 kg. The “Body weight Baseline Mean (SD)” value ([1]; mITT, baseline) was 100.33 (23.65) kg, the “Body weight Baseline Median” value ([1]; mITT, baseline) was 97.15 kg and the “HbA1c, observed data, Mean” value ([2]; Baseline) was 8.09%. The “HbA1c, observed data, Median” value ([2]; Baseline) was 8.00%, the “HbA1c, observed data, Mean” value ([2]; Screening) was 8.25% and the “HbA1c, observed data, Median” value ([2]; Screening) was 8.20%. The “HbA1c, change from baseline, Mean” value ([2]; Week 4) was −0.46%, the “HbA1c, change from baseline, Median” value ([2]; Week 4) was −0.40% and the “HbA1c, observed data, Mean” value ([2]; Week 4) was 7.64%. The “HbA1c, observed data, Median” value ([2]; Week 4) was 7.50%, the “HbA1c, change from baseline, Mean” value ([2]; Week 8) was −0.68% and the “HbA1c, change from baseline, Median” value ([2]; Week 8) was −0.60%. For the same molecule, the “HbA1c, observed data, Mean” value ([2]; Week 8) was 7.41%, the “HbA1c, observed data, Median” value ([2]; Week 8) was 7.30% and the “HbA1c, change from baseline, Mean” value ([2]; Week 12) was −0.81%. For the same molecule, the “HbA1c, change from baseline, Median” value ([2]; Week 12) was −0.80%, the “HbA1c, observed data, Mean” value ([2]; Week 12) was 7.26% and the “HbA1c, observed data, Median” value ([2]; Week 12) was 7.20%. For the same molecule, the “HbA1c, change from baseline, Mean” value ([2]; Week 16) was −0.79%, the “HbA1c, change from baseline, Median” value ([2]; Week 16) was −0.70% and the “HbA1c, observed data, Mean” value ([2]; Week 16) was 7.26%. For the same molecule, the “HbA1c, observed data, Median” value ([2]; Week 16) was 7.15%, the “HbA1c, change from baseline, Mean” value ([2]; Week 24 (LOCF)) was −0.70% and the “HbA1c, change from baseline, Median” value ([2]; Week 24 (LOCF)) was −0.70%. The “HbA1c, observed data, Mean” value ([2]; Week 24 (LOCF)) was 7.38%, the “HbA1c, observed data, Median” value ([2]; Week 24 (LOCF)) was 7.30% and the “HbA1c, change from baseline, Mean” value ([2]; Week 24) was −0.81%. The “HbA1c, change from baseline, Median” value ([2]; Week 24) was −0.80%, the “HbA1c, observed data, Mean” value ([2]; Week 24) was 7.21% and the “HbA1c, observed data, Median” value ([2]; Week 24) was 7.20%. The “patients with HbA1c≦[…] at Week 24” value ([2]; add-on to metformin, mITT) was 26.3%, the “LS mean change from baseline to Week 24 in HbA1c” value ([2]; add-on to metformin, mITT, LOCF) was −0.72% and the “HbA1c Change from baseline to week 24 (LOCF) Mean (SD)” value ([2]; mITT) was −0.70%. For the same molecule, the “HbA1c Change from baseline to week 24 (LOCF) Median” value ([2]; mITT) was −0.70%, the “Patients with HbA1c <7.0% at Week 24” value ([2]; mITT) was 64 (40.0%) n (%) and the “patients with HbA1c≦[…] at Week 24” value ([2]; mITT) was 42 (26.3%) n (%). For the same molecule, the “HbA1c Change from baseline to week 24 (LOCF) LS Mean (SE)” value ([2]; mITT, ANCOVA) was −0.72%, the “HbA1c Week 24 (LOCF) Mean (SD)” value ([2]; mITT, Week 24 (LOCF)) was 7.38% and the “HbA1c Week 24 (LOCF) Median” value ([2]; mITT, Week 24 (LOCF)) was 7.30%. For the same molecule, the “HbA1c Baseline Mean (SD)” value ([2]; mITT, baseline) was 8.08%, the “HbA1c Baseline Median” value ([2]; mITT, baseline) was 8.00% and the “Status at last study contact: Dead” value ([3]; Randomized population) was 0 n (%). For the same molecule, the “Status at last study contact: Alive” value ([3]; human, in vivo, 24 weeks) was 161 (100%) n (%), the “Treatment discontinuation: Adverse event” value ([3]; human, in vivo, 24 weeks) was 5 (3.1%) n (%) and the “treatment discontinuation due to adverse events” value ([3]; human, in vivo, 24 weeks) was 3.1%. The “Any symptomatic hypoglycemia: Number of patients with events” value ([4]; human) was 3 (1.9%) n (%), the “Any symptomatic hypoglycemia: Number of patients with events per 100 patient years” value ([4]; human) was 4.1 per 100 patient years and the “Symptomatic hypoglycemia, Blood glucose <60 mg/dL: Number of patients with events” value ([4]; human) was 1 (0.6%) n (%). The “Symptomatic hypoglycemia, Blood glucose <60 mg/dL: Number of patients with events per 100 patient years” value ([4]; human) was 1.4 per 100 patient years, the “Symptomatic hypoglycemia, No blood glucose reported: Number of patients with events” value ([4]; human) was 2 (1.2%) n (%) and the “Symptomatic hypoglycemia, No blood glucose reported: Number of patients with events per 100 patient years” value ([4]; human) was 2.7 per 100 patient years. The “number of symptomatic hypoglycemia events as defined in the protocol” value ([4]; human, 24 weeks) was 3 events, the “patients with symptomatic hypoglycemia as defined in the protocol” value ([4]; human, 24 weeks) was 1.9% and the “symptomatic hypoglycemia events severe according to the protocol definition” value [4] was “None”. The “Any injection site reactions” value ([5]; human) was 2 (1.2%) n (%), the Injection site erythema ([5]; human) was 0 n (%) and the Injection site haematoma ([5]; human) was 2 (1.2%) n (%). For the same molecule, the Injection site haemorrhage ([5]; human) was 0 n (%), the Injection site infection ([5]; human) was 0 n (%) and the Injection site pain ([5]; human) was 1 (0.6%) n (%). For the same molecule, the Injection site papule ([5]; human) was 0 n (%), the Injection site pruritus ([5]; human) was 0 n (%) and the Injection site rash ([5]; human) was 0 n (%). The “Injection site reactions: Investigator reported PTs” value ([5]; human) was 2 (1.2%) n (%), the “Injection site reactions: PTs by ARAC diagnosis” value ([5]; human) was 0 n (%) and the “patients experiencing injection site reaction AEs” value ([5]; human) was 1.2%. The “injection site reactions serious or severe in intensity” value [5] was “None”, the “AE form for increased calcitonin ≧20 pg/mL: Blood calcitonin increased” value [6] was 1 (0.6%) n (%) and the “Patients with a specific adverse event form for increased calcitonin ≧20 pg/mL completed: Any” value [6] was 1 (0.6%) n (%). For the same molecule, the “patients with AE form for increased calcitonin ≧20 pg/mL completed” value [6] was 0.6% and the “patients with at least one value of calcitonin ≧20 ng/L-<50 ng/L” value [6] was 0.6%.
